This is an account of results in PubChem BioAssay AID485344 (National Center for Advancing Translational Sciences (NCATS), 2010).

Several values for one entry are separate records, joined by “and”; a condition that tells them apart may be missing. Equal entries are not always repeated. In all, about 340,000 compounds went through this assay and about 6,900 (2%) were called active. Rule as the data show it: active = inhibition above about 30%; inactive = below that, where a call was filed. Only a part is listed here, and it is no random draw. The source gives no active or inactive call for entries shown without one.

As usually defined, the inhibition is the drop in the measured response relative to a control, in per cent.

UniProt P14416, sequence (P14416 whole entry, looked up): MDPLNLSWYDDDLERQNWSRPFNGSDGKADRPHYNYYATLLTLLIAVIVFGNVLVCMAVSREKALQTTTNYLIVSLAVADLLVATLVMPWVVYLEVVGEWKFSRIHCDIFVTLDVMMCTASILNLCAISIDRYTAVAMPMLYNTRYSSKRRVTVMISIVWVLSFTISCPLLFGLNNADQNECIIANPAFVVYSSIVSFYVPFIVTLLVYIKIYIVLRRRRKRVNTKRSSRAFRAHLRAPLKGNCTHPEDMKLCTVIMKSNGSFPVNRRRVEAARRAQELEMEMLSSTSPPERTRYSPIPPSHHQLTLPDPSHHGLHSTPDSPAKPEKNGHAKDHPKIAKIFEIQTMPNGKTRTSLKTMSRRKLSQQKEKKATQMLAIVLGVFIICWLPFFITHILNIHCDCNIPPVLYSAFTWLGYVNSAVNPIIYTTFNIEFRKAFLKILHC

The target in the test is D(2) dopamine receptor (Homo sapiens) (UniProt P14416). Briefly: HTS Assay for Allosteric Antagonists of the Human D2 Dopamine Receptor: Primary Screen for Antagonists. Also: 0% is about no effect. Particulars: HEK293 TREx D2 cells, calcium flux, dopamine EC80; at 10 µM; stronger effect = higher value. The method, boiled down:
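Read-out: kinetic calcium fluorescence (1 cycle/s) in inducible HEK293 T-REx D2 cells after an EC80 dopamine addition that followed 180 s compound preincubation. Loss of the dopamine response indicates antagonism.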
(In general: A change in cytosolic calcium serves as a functional read-out for many receptors and channels.)
Take `Cc1ccc(S(=O)(=O)c2cn(CC(=O)Nc3ccc(C)c(Cl)c3)c3ccc(C)cc3c2=O)cc1`: the inhibition is -5.04%.

Turning to `COc1cccc(C(=O)NCCSc2c(-c3ccc(F)cc3)[nH]c3ccccc23)c1OC`, the inhibition is -0.692%.

As to `O=C1CN(C(=O)c2ccc(S(=O)(=O)N3CCCCC3)cc2)C(c2ccc(F)cc2)c2cc(F)ccc2N1` (centres undefined), the inhibition is -3.93%.

On to `Cc1ccc(CNC(=O)C2CCCN(S(=O)(=O)c3ccc4c(c3)oc(=O)n4C)C2)cc1` (centres undefined), for which the inhibition was -15.4%.

On to `Cc1cc(C)cc(-n2nnc(-c3nc(-c4ccc5c(c4)OCO5)no3)c2C)c1`, for which the inhibition was determined as 6.24%.

`COc1cc2c(=O)n(CCC(=O)NCC3CCCO3)c(=O)n(CC(=O)Nc3ccc(C)cc3)c2cc1OC` (centres undefined): the inhibition is -14.4%.

In the case of `CCC(=O)N1c2ccc(S(=O)(=O)N3CCN(c4ccccc4)CC3)cc2CC1C` (centres undefined), the inhibition worked out at 12%.

With `CC(=O)c1ccc(NC(=O)c2cn3c4c(ccc(Cl)c4c2=O)OC(C)C3)cc1` (centres undefined), the inhibition was -3.23%.

With `Cc1ccc(C(=O)NCCn2c(C)cc3ccccc32)cc1C`, the inhibition is -0.623%.

On to `CCOc1ccccc1/C=C/c1onc(C)c1S(=O)(=O)N1CCC(C(=O)N(CC)CC)CC1`, for which the inhibition was 9.79% and active: 56.4%.

As for `O=C1Nc2c(c(=O)[nH]c(=O)n2-c2ccccc2)C1(NS(=O)(=O)c1ccc(Cl)cc1)C(F)(F)F` (centres undefined), the inhibition stood at 1.51%.

`CCCOc1ccc(-c2nn(-c3ccccc3)cc2C2NC(=O)NC(C)=C2C(=O)OC(C)C)cc1` (centres undefined): the inhibition worked out at 5.58%.

For the compound `Cc1ccc(NC(=O)Cn2c(=O)n(CCCCCC(=O)NCc3ccc(F)cc3)c(=O)c3sccc32)cc1C`, the inhibition is -16.9%.

For the compound `O=C(Cc1ccc(F)cc1)NC1CC(=O)N(c2ccccc2)C1` (centres undefined), the inhibition was -11.6%.

In the case of `COc1cc(-c2nnc(SCC(=O)NCc3ccccc3Cl)o2)cc(OC)c1OC`, the inhibition was determined as 2.18%.

Consider `CCOc1ccc(Cn2nnc3c(=O)[nH]c(C4CCN(C(=O)c5ccccc5)CC4)nc32)cc1`, for which the inhibition was -3.1%.

Take `COc1ccc(-c2cnnn2-c2ccc(NC(=O)c3ccc(S(=O)(=O)N(C)C)cc3)cc2)cc1`: the inhibition was determined as 0.603%.

For `COc1ccc(-c2cnnn2-c2ccc(NC(=O)c3c(F)cccc3F)cc2)cc1`, the inhibition was -0.285%.

As to `CCOC(=O)c1cnc2cc(-c3ccc(Cl)cc3)nn2c1-c1ccccc1`, the inhibition is -9.84%.

Turning to `Cc1ccc(C)c(N2CCN(CCCNC(=O)Cn3c(=O)c4cccn4c4cccnc43)CC2)c1`, the inhibition was active: 62.7%.

For `COc1ccc(C)cc1NC(=O)c1cc(S(=O)(=O)NC2CCCCCC2)ccc1F`, the inhibition was -7.7%.

For `COc1ccc(Cn2c(=O)[nH]c3cc(C(=O)N4CCN(c5cc(C)ccc5C)CC4)ccc3c2=O)cc1`, the inhibition is -10.6%.

As for `CCC(CC)c1nn2c(=O)cc(COc3ccc(NC(=O)c4ccccc4Cl)cc3)nc2s1`, the inhibition was -9.72%.

For the compound `NC(=O)c1cc(S(=O)(=O)N2CCN(c3ccc(F)cc3)CC2)cs1`, the inhibition is -5.14%.

For `Cc1ccccc1CNC(=O)C1CCN(c2nn3cc(-c4ccc(F)cc4)nc3s2)CC1`, the inhibition was -4.71%.

As to `CC1CCCCN1CCCNC(=O)Cn1ncc2c([nH]c3ccccc32)c1=O` (centres undefined), the inhibition was -7.68%.

Regarding `Cc1cccc(CNS(=O)(=O)c2ccc3[nH]c(=O)ccc3c2)c1`, the inhibition is -1.83%.

`Cc1ccccc1NC(=O)Nc1nnc(CC(=O)NCc2ccccc2)s1`: the inhibition is active: 31.5%.

Consider `Cc1cc(C=O)c(C)n1-c1ccc(Cl)c(C(=O)O)c1`, for which the inhibition was active: 37%.

As for `COc1ccccc1CNC(=O)c1ccc(N2CCCC2)c(NC(=O)NCc2ccccc2)c1`, the inhibition is -15.4%.

Turning to `CCN(CC)S(=O)(=O)c1nnc(NC(=O)COc2ccccc2Cl)s1`, the inhibition is -12.3%.

Take `CCc1nn(CC(=O)NCCCN2CCc3ccccc3C2)c(=O)c2cc3sccc3n12`: the inhibition is active: 79.1%.

Regarding `CCOc1ccc(C(=O)Nc2cccc(NC(=O)c3ccco3)c2)cc1Cl`, the inhibition was -0.94%.

As for `Cn1c(=O)c2c(nc(N/N=C/c3ccco3)n2C)n(C)c1=O`, the inhibition was active: 52.3%.

Regarding `O=C(COc1ccccc1F)OCc1cc(=O)n2nc(-c3cccs3)sc2n1`, the inhibition is -17.7%.

As for `Cc1ccc(NC(=S)NC2CCN(Cc3ccccc3)CC2)cc1C`, the inhibition is active: 77.6%.

For the compound `CCC(C(=O)N1CCN(c2ccccc2)CC1)n1nc(C)n2c(cc3sccc32)c1=O` (centres undefined), the inhibition came to 8.23%.

For the compound `CCc1nn2c(=O)cc(COC(=O)CNC(=O)c3ccccc3)nc2s1`, the inhibition was 5.08%.

For `O=C(Nc1ccc(Br)cc1)C1CCN(c2cnccn2)CC1`, the inhibition is -27.2%.

`COc1cc(OC)c(Nc2cc(C)nc3ncnn23)cc1Cl`: the inhibition was -3.16%.

On to `COc1ccccc1N1CCN(S(=O)(=O)c2c(C)sc3ncn(CC(=O)Nc4cccc(Cl)c4)c(=O)c23)CC1`, for which the inhibition is -0.231%.

Turning to `COC(=O)c1c(-c2ccc(Cl)cc2)noc1N1CCN(c2ccc(OC)cc2)CC1`, the inhibition was found to be 2.17%.

Consider `COc1ccc(C2CC(c3c(O)n(C4CCCCC4)c(=O)[nH]c3=O)=Nc3ccccc3S2)cc1` (centres undefined), for which the inhibition is 14.1%.

In the case of `Cc1ccc2c(c1)NC(=O)C(CC(=O)Nc1cc(Cl)ccc1C)O2` (centres undefined), the inhibition is 12.4%.

Regarding `Cc1n[nH]c(C)c1CCC(=O)N/N=C/c1cccc([N+](=O)[O-])c1`, the inhibition is active: 45.5%.

Take `COc1ccc(C(=O)NCc2nnc(SCC(=O)Nc3ccccc3)n2-c2ccc(F)cc2)cc1`: the inhibition amounted to 0.484%.

Turning to `COc1ccc(OC)c(NC(=O)CSc2ccnc(=O)[nH]2)c1`, the inhibition was found to be 16.3%.

As for `COc1ccc(NC(=O)c2c(NCc3ccc(C)o3)sc3c2CCC(C)C3)c(OC)c1` (centres undefined), the inhibition worked out at 3.7%.

Regarding `COc1ccccc1-c1cc(C(=O)Nc2sc3c(c2C#N)CCCC3)no1`, the inhibition is -12.9%.

Take `Cn1c(=O)oc2cc(S(=O)(=O)CCC(=O)N3CCN(c4ccccc4)CC3)ccc21`: the inhibition was -6.26%.

Take `Clc1ccc(N2CCN(c3ncnc4c3nc3n4CCCC3)CC2)cc1`: the inhibition is -13.3%.

In the case of `COc1cccc(N2CCN(C(=O)C3CCN(S(=O)(=O)c4ccc5c(c4)oc(=O)n5C)CC3)CC2)c1`, the inhibition was found to be 8.24%.

For the compound `COc1ccc2c(c1)CC(C(=O)NCCCN1CCN(c3ccc(F)cc3)CC1)CO2` (centres undefined), the inhibition is 1.46%.

Consider `COc1cccc(C(=O)Nc2cc3c(cc2C(=O)c2ccc(C)cc2)OCCO3)c1`, for which the inhibition was -6.12%.

Consider `CCOC(=O)C1CCCN(c2nc3c(S(=O)(=O)c4ccc(C)c(C)c4)nnn3c3ccc(Cl)cc23)C1` (centres undefined), for which the inhibition was 8.2%.

Take `CCn1c(=O)c2sccc2n2c(CCC(=O)Nc3cc(C)cc(C)c3)nnc12`: the inhibition was determined as 22.7%.

For the compound `Cc1ccc(Cl)cc1N1CCN(c2ncnc3onc(C)c23)CC1`, the inhibition is -3.1%.

For `Cc1ccc(OCC(=O)Nc2ccc3nc(SCC(=O)N4CCc5ccccc54)sc3c2)cc1`, the inhibition amounted to 3.42%.

For the compound `Cc1cc(C)cc(OCC(=O)Nc2ccc(-c3nc4ccccc4o3)cc2)c1`, the inhibition is -13.4%.

For `CCC(=O)N1CCc2cc(S(=O)(=O)NC(C(=O)Nc3ccc(C(C)=O)cc3)C(C)C)ccc21` (centres undefined), the inhibition was -2.38%.

With `COc1cc(N)c(Cl)cc1C(=O)N[C@@H]1CCN(CCCOc2ccc(F)cc2)C[C@@H]1OC`, the inhibition was active: 76.6%.

On to `CCOC(=O)N1CCC(NCCNC(=O)c2ccco2)CC1`, for which the inhibition was active: 38.2%.

As to `CCC(=O)N1CCc2cc(Br)cc(S(=O)(=O)N3CCCC(C(=O)N(C)c4ccc(Br)cc4)C3)c21` (centres undefined), the inhibition is -15%.

On to `O=C(NCCc1ccccc1)c1cnn(-c2ccc(F)cc2)c1-n1cccc1`, for which the inhibition turned out to be 5.55%.

Consider `CCOC(=O)N1CCc2c(sc3c2c(=O)n(CCc2ccccc2)c(=O)n3Cc2c(F)cccc2Cl)C1`, for which the inhibition was -8.08%.

For the compound `CCc1ccc(CNC(=O)CN2CCSc3ccccc32)cc1`, the inhibition is -12.6%.

For `Cc1ccc(NC(=O)C(=O)NCC2(c3ccccc3)CCCC2)cc1Cl`, the inhibition amounted to 5.35%.

With `Cc1ccc(NC(=O)CSc2nc3n[nH]c(C)c3c(=N)n2-c2cccc(C)c2)cc1`, the inhibition was 2.52%.

Regarding `O=C(CN1C(=O)COc2ccc(S(=O)(=O)N3CCCCCC3)cc21)NCc1ccc(F)cc1`, the inhibition came out at 17.5%.

On to `CCSc1ncc(Cl)c(C(=O)Nc2ccc(S(=O)(=O)N(C)c3ccccc3)cc2)n1`, for which the inhibition was 3.25%.

Regarding `CCCSCCCNC(=O)c1ccc2nc(Cc3ccccc3)oc2c1`, the inhibition is -5.42%.

Turning to `Cc1cc(Nc2cccc(Cl)c2)nc2ccc(NC(=O)c3cccnc3)cc12`, the inhibition is -13%.

Take `COc1ccc(Nc2cc(C(=O)NCc3ccccc3OC)c3ccccc3n2)cc1`: the inhibition is -3.6%.

Consider `Cc1cc(OCC(=O)N(Cc2sccc2C)C2CCS(=O)(=O)C2)ccc1Cl` (centres undefined), for which the inhibition was found to be 5.5%.

With `CCc1cccc(C)c1NC(=O)CSc1nnc(CC)n2c1cc1occc12`, the inhibition was -0.941%.

As to `COc1ccc(CNC(=O)CN2C(=O)c3cccnc3Oc3ccc(C)cc32)cc1`, the inhibition was -0.449%.

In the case of `Cc1cc(C)c2c(CC(=O)Nc3c(C(=O)Nc4ccc(Cl)cc4)oc4ccccc34)coc2c1`, the inhibition came out at 15%.

Regarding `COc1ccc(N2CCN(c3oc(/C=C/c4cc(OC)c(OC)c(OC)c4)nc3C#N)CC2)cc1`, the inhibition was -2.69%.

Consider `Cc1[nH]c(=O)c(C#N)cc1-c1csc(-c2ccccc2)n1`, for which the inhibition is active: 38.7%.

For the compound `COc1cc(C(=O)Nc2ccc3oc(-c4ccc(C)c(Br)c4)nc3c2)cc(OC)c1OC`, the inhibition was -1.06%.

Take `Cc1cc(C)cc(Oc2nc3c(c(=O)n(C)c(=O)n3C)n2Cc2ccc(F)cc2)c1`: the inhibition worked out at 10.5%.

On to `CCOC(=O)c1ccccc1NC(=O)N(C)CCc1c(C)nn(CC)c1C`, for which the inhibition stood at 13%.

Take `COc1ccc(F)cc1S(=O)(=O)NCCc1sc2nc(-c3ccc(F)cc3)nn2c1C`: the inhibition stood at 0.353%.

`CCCCCCSc1nsc(N)n1`: the inhibition is active: 51.1%.

As for `CC1CN(C(=O)Nc2ccc(C(=O)NCc3cccc(F)c3)cc2)c2ccccc2S1` (centres undefined), the inhibition was found to be 8.89%.

With `O=C(Nc1ccccc1Cl)N1CCC(CN2CCCCC2)CC1`, the inhibition is -3.34%.

As to `O=C(Nc1ccc(C(F)(F)F)cc1)C1CCCN(c2cnccn2)C1` (centres undefined), the inhibition is -7.66%.

With `O=C(NC1CCN(Cc2ccccc2)CC1)c1cn(-c2ccccc2)nc1-c1cccnc1`, the inhibition is active: 74.7%.

On to `O=c1c(S(=O)(=O)c2ccccc2)cn(Cc2ccccc2)c2cc(N3CCOCC3)c(F)cc12`, for which the inhibition was determined as 7.27%.

For `CC(C(=O)NCc1ccccc1F)n1ccc2cc(S(=O)(=O)N3CCCC3)ccc21` (centres undefined), the inhibition was found to be 2.85%.

Consider `CCc1ccccc1NC(=O)Nc1cc(C(=O)NCc2ccc(C)cc2)ccc1N1CCCC1`, for which the inhibition was -5.57%.

As to `CN1CCc2nc(SCCOc3ccccc3)c(C#N)cc2C1`, the inhibition is active: 30.9%.

Turning to `CCOc1ccccc1NC(=O)c1c(NC(=O)c2cccc(C)c2)sc2c1CCCC2`, the inhibition was 1.16%.

As to `COc1ccc(Br)cc1C(=O)Nc1nc2ccc(F)cc2s1`, the inhibition was determined as 9.76%.
